# Experimental data taken from a collection of fitness landscapes (doi:10.1016/j.celrep.2020.107928).
# In all, about 81,000 sequences were measured (“one-hybrid fitness for binding NBS DNA”: median about -0.1, highest 2% from about 0.36 on). The list shows a part of the results.
# B1: Caulobacter ParB omega fusion; a variant is named by its letters at X, in order, B8GW30 (parent)
# chain: MESVVVGEPGMSEGRRGLGRGLSALLGEVDAAPAQAPGEQLGGSREAPIEILQRNPDQPRRTFREEDLEDLSNSIREKGVLQPILVRPSPDTAGEYQIVAGERAWRAAQRAGLKTVPIMVRELDDLAVLEIGIIENVQRADLNVLEEALSYKVLMEKFERTQENIAQTIGKSXSHVANXMRLLXLPDEVQSYLVSGELTAXHARAIAAAADPVALAKQIIEGGLSVRETEALARKAPNLSAGKSKGGRPPRVKDTDTQALESDLSSVLGLDVSIDHRGSTGTLTITYATLEQLDDLCNRLTRGI
# Variants of: B1
# Experiment: one-hybrid fitness for binding NBS DNA (the Noc-binding site; scaled: cognate 1, non-cognate 0); higher = stronger binding
# Conditions: with NBS DNA site
# Summary of the method: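 In E. coli USO, a HIS3 reporter with its site placed 19 bp from the promoter was used to select Caulobacter ParB variants randomised at four specificity codons. Growth lasted 48 hours at 37°C on histidine-free M9 containing 0.1 mM IPTG and 5 mM 3-AT. Fitness was taken as the log change in variant-to-wild-type read ratio from Illumina sequencing of pre- and post-selection plasmids, rescaled between the non-cognate and cognate sites.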
row,Variant,one-hybrid fitness for binding NBS DNA
1,YNYS,≤ 0.2
2,YRCV,≤ 0.2
3,PLIY,≤ 0.2
4,NHES,≤ 0.2
5,HGTK,≤ 0.2
6,RAPN,≤ 0.2
7,MALT,≤ 0.2
8,RAPW,≤ 0.2
9,MTTY,≤ 0.2
10,PREN,≤ 0.2
11,NQEL,≤ 0.2
12,QTEC,≤ 0.2
13,AYVT,≤ 0.2
14,TNHS,≤ 0.2
15,ATQR,≤ 0.2
16,FKSG,≤ 0.2
17,AGKT,≤ 0.2
18,GGCL,≤ 0.2
19,AWHL,≤ 0.2
20,STPD,≤ 0.2
21,SLHS,≤ 0.2
22,LYDR,≤ 0.2
23,WHYR,≤ 0.2
24,RLRY,0.291
25,KSHM,≤ 0.2

row,Variant,one-hybrid fitness for binding NBS DNA
1,TLMG,≤ 0.2
2,TMQN,≤ 0.2
3,HVKR,≤ 0.2
4,TCLR,≤ 0.2
5,RRWG,0.216
6,SENS,≤ 0.2
7,GITS,≤ 0.2
8,CTSG,≤ 0.2
9,WMCG,≤ 0.2
10,QQHC,≤ 0.2
11,WIST,≤ 0.2
12,QNRF,≤ 0.2
13,PKSD,≤ 0.2
14,CQQC,≤ 0.2
15,CARG,≤ 0.2
16,RHVA,≤ 0.2
17,QEYM,≤ 0.2
18,RDER,≤ 0.2
19,TMFV,≤ 0.2
20,TTVN,≤ 0.2
21,PNSW,≤ 0.2
22,VHAF,≤ 0.2
23,DMGS,≤ 0.2
24,MKES,≤ 0.2
25,DNYC,≤ 0.2

row,Variant,one-hybrid fitness for binding NBS DNA
1,SRAF,≤ 0.2
2,LITL,≤ 0.2
3,TVIS,≤ 0.2
4,RIRP,≤ 0.2
5,IVLI,≤ 0.2
6,NNVN,≤ 0.2
7,PKKM,≤ 0.2
8,VLIP,≤ 0.2
9,RCWM,≤ 0.2
10,GQSK,≤ 0.2
11,EFNL,≤ 0.2
12,MPPV,≤ 0.2
13,FCQL,≤ 0.2
14,VCVC,≤ 0.2
15,GDAD,≤ 0.2
16,FHST,≤ 0.2
17,EWHR,≤ 0.2
18,GYRG,≤ 0.2
19,GEFG,≤ 0.2
20,FMNM,≤ 0.2
21,RPRQ,≤ 0.2
22,YPWR,≤ 0.2
23,SVEE,≤ 0.2
24,QGSK,≤ 0.2
25,PQKP,≤ 0.2

row,Variant,one-hybrid fitness for binding NBS DNA
1,EKTL,≤ 0.2
2,QWAS,≤ 0.2
3,RGER,≤ 0.2
4,YHIR,≤ 0.2
5,RFRP,≤ 0.2
6,AILW,≤ 0.2
7,CQWC,≤ 0.2
8,PTWG,≤ 0.2
9,KWGC,≤ 0.2
10,AMRH,≤ 0.2
11,DTMT,≤ 0.2
12,NFQR,≤ 0.2
13,RSIL,≤ 0.2
14,PYKL,≤ 0.2
15,HVCS,≤ 0.2
16,QISK,≤ 0.2
17,QWRK,≤ 0.2
18,IDAG,≤ 0.2
19,NEFC,≤ 0.2
20,GSPR,≤ 0.2
21,KPTV,≤ 0.2
22,PAQW,≤ 0.2
23,NGMI,≤ 0.2
